The target of assay [1] is Flag-tagged CUL4B (Cullin 4B) (human) (UniProt Q13620). Nature of the assay: co-IP; pCDNA3-CUL4B-Flag transfected into hFOB1.19, U2OS or Saos-2 cells, 48 h; anti-Flag agarose; immunoblot for endogenous partners. A general note: A western blot detects proteins with antibodies after separation by electrophoresis.
Assay [2] addresses CUL4B in pGBKT7 (yeast two-hybrid bait) (human) (UniProt Q13620). Nature of the assay: two-hybrid; yeast AH109; pGBKT7 bait and pGADT7 prey; growth on medium lacking Trp, Leu and His.
Another assay concerns the target Flag-tagged p21 (UniProt P38936). Briefly: co-IP; pCDNA3-p21-Flag transfected into hFOB1.19, U2OS or Saos-2 cells, 48 h; anti-Flag agarose; immunoblot for endogenous DCAFs.
Assay [3] concerns the target Flag-tagged CUL4B (Cullin 4B) (human) (UniProt Q13620). Nature of the assay: co-IP; pCDNA3-CUL4B-Flag transfected into hFOB1.19, U2OS or Saos-2 cells, 48 h; anti-Flag agarose; immunoblot for endogenous partners. The source holds these as a separate data set.
Assay [4] deals with p21 in pGBKT7 (yeast two-hybrid bait) (UniProt P38936). Briefly: two-hybrid; yeast AH109; pGBKT7 bait and pGADT7 prey; growth on medium lacking Trp, Leu and His.

The chains behind the UniProt entries cited, without tags or fusion partners.
UniProt Q13620: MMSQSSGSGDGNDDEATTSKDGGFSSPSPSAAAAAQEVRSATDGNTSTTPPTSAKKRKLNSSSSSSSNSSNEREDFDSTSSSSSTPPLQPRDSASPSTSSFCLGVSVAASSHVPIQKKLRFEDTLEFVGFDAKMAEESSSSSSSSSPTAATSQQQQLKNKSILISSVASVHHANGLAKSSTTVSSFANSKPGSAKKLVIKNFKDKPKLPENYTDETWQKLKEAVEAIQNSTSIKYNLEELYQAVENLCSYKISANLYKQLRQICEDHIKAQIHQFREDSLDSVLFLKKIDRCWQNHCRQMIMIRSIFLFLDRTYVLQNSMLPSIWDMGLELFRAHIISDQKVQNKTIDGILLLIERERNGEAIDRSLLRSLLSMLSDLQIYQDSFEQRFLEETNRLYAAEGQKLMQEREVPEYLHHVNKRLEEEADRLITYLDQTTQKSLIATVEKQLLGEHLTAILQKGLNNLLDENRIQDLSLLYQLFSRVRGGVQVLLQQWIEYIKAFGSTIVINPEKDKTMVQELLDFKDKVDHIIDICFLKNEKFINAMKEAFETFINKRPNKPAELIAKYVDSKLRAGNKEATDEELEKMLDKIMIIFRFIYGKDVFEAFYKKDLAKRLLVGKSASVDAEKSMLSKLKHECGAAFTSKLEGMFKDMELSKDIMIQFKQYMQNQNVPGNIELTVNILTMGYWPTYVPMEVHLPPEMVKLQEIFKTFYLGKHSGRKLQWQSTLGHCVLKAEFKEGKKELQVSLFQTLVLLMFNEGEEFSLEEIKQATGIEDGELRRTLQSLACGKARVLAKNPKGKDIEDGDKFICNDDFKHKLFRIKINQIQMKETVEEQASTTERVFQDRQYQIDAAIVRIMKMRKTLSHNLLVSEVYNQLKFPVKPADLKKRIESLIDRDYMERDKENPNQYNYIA
UniProt P38936: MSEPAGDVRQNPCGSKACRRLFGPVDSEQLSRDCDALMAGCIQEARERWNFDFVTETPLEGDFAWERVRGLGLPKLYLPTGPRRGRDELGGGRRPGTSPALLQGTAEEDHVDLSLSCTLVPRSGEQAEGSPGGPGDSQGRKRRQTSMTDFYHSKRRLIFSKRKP
UniProt Q66K64: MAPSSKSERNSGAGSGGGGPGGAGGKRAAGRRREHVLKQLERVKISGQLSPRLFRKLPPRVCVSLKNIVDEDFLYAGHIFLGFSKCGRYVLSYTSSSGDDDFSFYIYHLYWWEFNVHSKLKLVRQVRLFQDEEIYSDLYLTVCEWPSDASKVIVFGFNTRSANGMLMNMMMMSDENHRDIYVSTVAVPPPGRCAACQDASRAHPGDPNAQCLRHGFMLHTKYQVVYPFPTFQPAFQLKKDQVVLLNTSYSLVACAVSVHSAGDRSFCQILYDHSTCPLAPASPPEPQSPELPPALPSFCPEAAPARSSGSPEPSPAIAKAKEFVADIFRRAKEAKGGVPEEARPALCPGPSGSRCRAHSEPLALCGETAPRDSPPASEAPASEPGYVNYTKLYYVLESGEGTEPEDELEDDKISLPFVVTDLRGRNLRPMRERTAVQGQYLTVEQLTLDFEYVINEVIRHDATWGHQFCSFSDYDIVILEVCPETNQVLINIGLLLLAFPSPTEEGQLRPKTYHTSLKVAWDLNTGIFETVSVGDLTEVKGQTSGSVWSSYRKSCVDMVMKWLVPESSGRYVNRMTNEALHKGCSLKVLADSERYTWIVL
UniProt Q16531: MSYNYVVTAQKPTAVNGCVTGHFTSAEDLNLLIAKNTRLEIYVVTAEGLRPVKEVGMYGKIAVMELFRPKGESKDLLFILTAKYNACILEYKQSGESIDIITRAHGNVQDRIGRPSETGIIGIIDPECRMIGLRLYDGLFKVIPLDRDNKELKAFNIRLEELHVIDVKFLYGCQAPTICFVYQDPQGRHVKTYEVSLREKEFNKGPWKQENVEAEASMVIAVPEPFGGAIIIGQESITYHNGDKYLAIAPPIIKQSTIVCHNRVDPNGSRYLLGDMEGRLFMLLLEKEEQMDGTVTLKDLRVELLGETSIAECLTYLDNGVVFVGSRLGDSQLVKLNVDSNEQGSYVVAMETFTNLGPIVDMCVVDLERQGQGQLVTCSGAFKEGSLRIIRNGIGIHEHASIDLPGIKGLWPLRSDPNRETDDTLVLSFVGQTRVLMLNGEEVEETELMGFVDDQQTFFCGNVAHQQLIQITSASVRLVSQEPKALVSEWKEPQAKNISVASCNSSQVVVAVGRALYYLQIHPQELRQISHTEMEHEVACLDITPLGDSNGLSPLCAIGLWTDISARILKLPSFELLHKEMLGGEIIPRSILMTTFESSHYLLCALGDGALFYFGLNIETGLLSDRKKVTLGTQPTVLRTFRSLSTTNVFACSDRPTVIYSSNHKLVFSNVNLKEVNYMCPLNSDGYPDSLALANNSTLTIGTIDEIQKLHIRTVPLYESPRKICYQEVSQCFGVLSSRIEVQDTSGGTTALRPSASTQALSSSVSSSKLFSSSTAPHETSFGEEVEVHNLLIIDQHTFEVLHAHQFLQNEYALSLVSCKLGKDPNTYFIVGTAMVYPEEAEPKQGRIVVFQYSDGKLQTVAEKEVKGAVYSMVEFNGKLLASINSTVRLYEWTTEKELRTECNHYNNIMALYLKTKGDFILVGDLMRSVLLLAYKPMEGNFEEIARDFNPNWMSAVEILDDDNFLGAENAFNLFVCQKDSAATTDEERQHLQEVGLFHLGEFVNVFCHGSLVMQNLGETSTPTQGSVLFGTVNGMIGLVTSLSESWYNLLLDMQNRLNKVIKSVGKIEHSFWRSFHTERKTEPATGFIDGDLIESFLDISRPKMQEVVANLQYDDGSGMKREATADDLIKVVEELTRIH

Binding data for five molecules are collected here from publication PMC5430835.

Like-named read-outs stand apart in the source and are kept apart here. Results are given in words; binding and its absence hold for the method and conditions named. For part of these data: In cells and extracts the contact can be indirect. Some results given as binding are weak or reduced against the parent protein; the word gives no strength.

Consider DCAF15 (from UniProt Q66K64 1-600), for which the binding result in assay [1] is recorded as “no binding”.

On to “DDB1 (DNA damage binding protein 1) (from UniProt Q16531 1-1140)”, for which the binding entry in assay [1] is “binds”.

For “DDB1 in pGADT7 (yeast two-hybrid prey) (from UniProt Q16531 1-1140)”, the binding result in assay [2] is listed as “binds”.

B1: DCAF4 (protein, UniProt Q8WV16 1-495)
chain: MNKSRWQSRRRHGRRSHQQNPWFRLRDSEDRSDSRAAQPAHDSGHGDDESPSTSSGTAGTSSVPELPGFYFDPEKKRYFRLLPGHNNCNPLTKESIRQKEMESKRLRLLQEEDRRKKIARMGFNASSMLRKSQLGFLNVTNYCHLAHELRLSCMERKKVQIRSMDPSALASDRFNLILADTNSDRLFTVNDVKVGGSKYGIINLQSLKTPTLKVFMHENLYFTNRKVNSVCWASLNHLDSHILLCLMGLAETPGCATLLPASLFVNSHPGIDRPGMLCSFRIPGAWSCAWSLNIQANNCFSTGLSRRVLLTNVVTGHRQSFGTNSDVLAQQFALMAPLLFNGCRSGEIFAIDLRCGNQGKGWKATRLFHDSAVTSVRILQDEQYLMASDMAGKIKLWDLRTTKCVRQYEGHVNEYAYLPLHVHEEEGILVAVGQDCYTRIWSLHDARLLRTIPSPYPASKADIPSVAFSSRLGGSRGAPGLLMAVGQDLYCYSYS
With B1, the binding entry is on record as “no binding” with Flag-tagged p21 and “binds” in assay [3].

B2: DCAF4 in pGADT7 (yeast two-hybrid prey) (protein, UniProt Q8WV16 1-495)
chain: MNKSRWQSRRRHGRRSHQQNPWFRLRDSEDRSDSRAAQPAHDSGHGDDESPSTSSGTAGTSSVPELPGFYFDPEKKRYFRLLPGHNNCNPLTKESIRQKEMESKRLRLLQEEDRRKKIARMGFNASSMLRKSQLGFLNVTNYCHLAHELRLSCMERKKVQIRSMDPSALASDRFNLILADTNSDRLFTVNDVKVGGSKYGIINLQSLKTPTLKVFMHENLYFTNRKVNSVCWASLNHLDSHILLCLMGLAETPGCATLLPASLFVNSHPGIDRPGMLCSFRIPGAWSCAWSLNIQANNCFSTGLSRRVLLTNVVTGHRQSFGTNSDVLAQQFALMAPLLFNGCRSGEIFAIDLRCGNQGKGWKATRLFHDSAVTSVRILQDEQYLMASDMAGKIKLWDLRTTKCVRQYEGHVNEYAYLPLHVHEEEGILVAVGQDCYTRIWSLHDARLLRTIPSPYPASKADIPSVAFSSRLGGSRGAPGLLMAVGQDLYCYSYS
Turning to B2, the binding entry in assay [4] is given as “no binding”.
